Positions count from the first letter of the chain named. These are yes or no findings as the source states them, for the method shown. For part of these data: Binding seen in cells or lysates may run through a third protein. Some entries that bind do so weakly or less than the wild type. For part of these data: Tags and fused reporters may be left off the sequences shown.

Protein sequences, listed by entry. Tags and fused reporters are not part of them. Lines headed by an entry give the natural chain unless they say otherwise; changes in a name come on top.
UniProt Q6MZP7: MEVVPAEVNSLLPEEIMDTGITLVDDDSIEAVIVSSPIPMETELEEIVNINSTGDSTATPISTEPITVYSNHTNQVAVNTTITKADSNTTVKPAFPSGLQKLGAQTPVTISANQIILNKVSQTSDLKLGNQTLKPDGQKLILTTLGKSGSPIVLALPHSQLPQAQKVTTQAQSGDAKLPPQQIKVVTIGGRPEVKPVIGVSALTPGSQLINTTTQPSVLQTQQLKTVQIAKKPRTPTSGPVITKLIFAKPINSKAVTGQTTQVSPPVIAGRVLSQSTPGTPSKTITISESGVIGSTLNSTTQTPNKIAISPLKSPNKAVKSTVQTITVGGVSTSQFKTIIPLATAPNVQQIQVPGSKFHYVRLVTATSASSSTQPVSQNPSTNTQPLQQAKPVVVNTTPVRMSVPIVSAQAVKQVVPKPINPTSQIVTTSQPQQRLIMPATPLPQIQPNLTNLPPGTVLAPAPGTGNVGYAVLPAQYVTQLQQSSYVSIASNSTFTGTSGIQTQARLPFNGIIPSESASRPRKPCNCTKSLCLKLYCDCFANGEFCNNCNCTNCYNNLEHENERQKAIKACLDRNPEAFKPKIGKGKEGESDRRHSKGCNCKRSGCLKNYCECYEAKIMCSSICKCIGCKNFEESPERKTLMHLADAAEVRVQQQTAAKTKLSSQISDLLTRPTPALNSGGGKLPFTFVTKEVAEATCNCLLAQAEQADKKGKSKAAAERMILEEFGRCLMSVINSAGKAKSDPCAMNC
UniProt Q96GY3: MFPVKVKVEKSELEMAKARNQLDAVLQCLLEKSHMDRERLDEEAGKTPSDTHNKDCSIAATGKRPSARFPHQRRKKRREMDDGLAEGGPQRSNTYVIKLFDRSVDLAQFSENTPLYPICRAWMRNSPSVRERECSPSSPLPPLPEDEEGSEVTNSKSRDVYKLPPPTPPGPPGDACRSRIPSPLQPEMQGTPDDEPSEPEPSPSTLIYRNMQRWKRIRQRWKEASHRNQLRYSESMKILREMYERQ
UniProt Q09028: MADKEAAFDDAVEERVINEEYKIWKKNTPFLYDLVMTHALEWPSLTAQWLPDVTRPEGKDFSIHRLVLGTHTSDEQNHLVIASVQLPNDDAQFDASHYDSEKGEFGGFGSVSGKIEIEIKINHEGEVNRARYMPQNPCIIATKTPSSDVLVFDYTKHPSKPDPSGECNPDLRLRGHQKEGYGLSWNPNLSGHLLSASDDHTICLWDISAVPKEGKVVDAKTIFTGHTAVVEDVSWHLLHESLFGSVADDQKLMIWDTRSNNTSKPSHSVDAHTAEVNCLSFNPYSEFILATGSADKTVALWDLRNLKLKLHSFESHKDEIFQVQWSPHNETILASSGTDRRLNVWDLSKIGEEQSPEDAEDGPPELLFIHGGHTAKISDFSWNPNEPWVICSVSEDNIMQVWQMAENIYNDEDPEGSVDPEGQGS
UniProt Q08999: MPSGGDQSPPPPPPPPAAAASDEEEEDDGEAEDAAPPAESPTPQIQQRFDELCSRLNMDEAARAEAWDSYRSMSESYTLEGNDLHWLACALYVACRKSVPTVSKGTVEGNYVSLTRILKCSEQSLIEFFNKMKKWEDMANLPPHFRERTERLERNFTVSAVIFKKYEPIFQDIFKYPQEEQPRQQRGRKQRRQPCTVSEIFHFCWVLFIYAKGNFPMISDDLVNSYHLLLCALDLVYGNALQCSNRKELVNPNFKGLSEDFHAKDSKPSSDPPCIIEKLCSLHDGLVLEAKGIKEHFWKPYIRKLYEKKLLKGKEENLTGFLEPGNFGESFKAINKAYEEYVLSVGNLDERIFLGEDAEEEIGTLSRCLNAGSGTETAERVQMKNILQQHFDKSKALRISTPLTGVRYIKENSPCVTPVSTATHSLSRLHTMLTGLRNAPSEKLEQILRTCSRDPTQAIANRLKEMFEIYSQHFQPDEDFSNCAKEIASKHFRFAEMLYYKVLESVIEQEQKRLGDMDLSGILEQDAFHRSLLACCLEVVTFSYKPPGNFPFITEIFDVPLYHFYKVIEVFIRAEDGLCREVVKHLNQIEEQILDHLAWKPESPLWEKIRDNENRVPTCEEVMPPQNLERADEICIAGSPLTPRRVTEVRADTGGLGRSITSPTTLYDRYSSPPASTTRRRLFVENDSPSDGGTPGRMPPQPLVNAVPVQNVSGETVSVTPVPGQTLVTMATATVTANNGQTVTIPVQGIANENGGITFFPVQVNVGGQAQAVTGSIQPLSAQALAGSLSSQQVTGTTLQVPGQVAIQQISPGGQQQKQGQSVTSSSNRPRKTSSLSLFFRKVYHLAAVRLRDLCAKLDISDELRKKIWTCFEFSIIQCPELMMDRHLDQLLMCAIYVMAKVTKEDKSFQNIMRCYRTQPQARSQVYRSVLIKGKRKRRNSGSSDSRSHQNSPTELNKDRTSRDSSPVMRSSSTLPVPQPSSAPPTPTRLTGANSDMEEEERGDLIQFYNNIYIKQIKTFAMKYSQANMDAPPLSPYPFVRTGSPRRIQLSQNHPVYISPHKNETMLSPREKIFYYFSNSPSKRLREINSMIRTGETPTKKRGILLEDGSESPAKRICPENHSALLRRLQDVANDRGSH

The text below walks through data of article PMC8792015.

For experiment [1], the target named is GST-LIN9^94–542 (human) (UniProt Q5TKA1). Description: pull-down; all five tagged MuvB subunits co-expressed in Sf9 cells; extracts precipitated with resin capturing the indicated tag, also successive precipitations of different affinity tags; coomassie staining.
The target of experiment [2] is LIN9^94–278 (DIRP region of LIN9) (human) (UniProt Q5TKA1). Description: crystal structure; MuvBN subcomplex, sitting drop at 4 °C, 0.2 M sodium tartrate, 0.1 M bis-tris propane pH 6.5, 20% PEG 3350; 2.55 Å; both purified.
The target of experiment [3] is T1, FLAG-tagged mouse LIN9^300–542 (mouse) (UniProt Q8C735).
T1 sequence: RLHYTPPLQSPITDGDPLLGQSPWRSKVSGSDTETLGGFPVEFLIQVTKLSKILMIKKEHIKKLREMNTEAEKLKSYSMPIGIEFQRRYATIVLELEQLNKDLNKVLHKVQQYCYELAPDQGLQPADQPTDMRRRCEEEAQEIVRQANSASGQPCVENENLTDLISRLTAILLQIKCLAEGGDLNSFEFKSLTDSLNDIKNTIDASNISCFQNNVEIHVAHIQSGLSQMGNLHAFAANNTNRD
Description: co-IP; FLAG-tagged mouse proteins transfected into HCT116 cells (10 uM Nutlin-3a for 24 h to stimulate DREAM formation); anti-FLAG magnetic agarose from 2-3 mg whole cell extract, IP lysis buffer with 150 mM NaCl, 0.5% Triton-X 100; endogenous proteins detected by western blot.

Experiment [4] has as its target T2, FLAG-LIN9 triple mutant E125A/W126A/F127A (mouse) (UniProt Q8C735).
T2 sequence: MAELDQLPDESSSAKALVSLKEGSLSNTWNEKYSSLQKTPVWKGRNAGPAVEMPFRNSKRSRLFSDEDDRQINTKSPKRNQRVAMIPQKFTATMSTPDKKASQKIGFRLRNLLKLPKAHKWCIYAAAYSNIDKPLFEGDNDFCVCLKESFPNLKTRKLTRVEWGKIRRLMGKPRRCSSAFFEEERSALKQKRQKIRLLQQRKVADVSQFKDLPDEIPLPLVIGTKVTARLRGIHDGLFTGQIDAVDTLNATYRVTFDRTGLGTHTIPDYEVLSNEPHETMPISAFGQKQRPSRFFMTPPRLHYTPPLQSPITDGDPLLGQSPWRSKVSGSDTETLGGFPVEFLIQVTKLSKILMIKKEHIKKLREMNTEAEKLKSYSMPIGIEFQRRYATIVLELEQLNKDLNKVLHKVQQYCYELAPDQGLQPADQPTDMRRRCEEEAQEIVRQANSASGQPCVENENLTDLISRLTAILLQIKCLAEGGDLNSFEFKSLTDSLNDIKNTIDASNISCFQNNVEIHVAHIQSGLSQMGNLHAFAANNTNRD
Described as above.

For experiment [5], the target named is T3, FLAG-tagged mouse LIN9^1–300 (mouse) (UniProt Q8C735).
T3 sequence: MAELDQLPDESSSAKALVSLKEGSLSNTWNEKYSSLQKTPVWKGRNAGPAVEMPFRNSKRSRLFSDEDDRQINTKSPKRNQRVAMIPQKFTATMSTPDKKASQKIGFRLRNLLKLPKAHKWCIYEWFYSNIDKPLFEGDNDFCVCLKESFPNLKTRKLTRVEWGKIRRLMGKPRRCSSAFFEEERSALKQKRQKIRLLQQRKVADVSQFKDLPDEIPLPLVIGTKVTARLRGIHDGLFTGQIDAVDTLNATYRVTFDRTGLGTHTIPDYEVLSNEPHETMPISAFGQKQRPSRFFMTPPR
The description is as above.

Experiment [6] concerns the target T4, FLAG-tagged mouse LIN9, wild type (mouse) (UniProt Q8C735).
T4 sequence: T2 sequence with A125E, A126W, A127F
The description is as above.

Experiment [7] addresses T5, FLAG-LIN9 quadruple mutant R174A/R175A/F180A/F181A (mouse) (UniProt Q8C735).
T5 sequence: T2 sequence with A125E, A126W, A127F, R174A, R175A, F180A, F181A
Described as above.

Regarding “His-LIN54^504–749 (from UniProt Q6MZP7 504-749) (domain or fragment)”, in experiment [1], the binding entry is “binds”.

Take GST-LIN37 (from UniProt Q96GY3 1-246): the binding entry in experiment [1] is “binds”.

Take “LIN37^92–130 (CRAW domain of LIN37) (from UniProt Q96GY3 92-130) (domain or fragment)”: in experiment [2], the binding result is “binds”.

As for GST-LIN52 (from UniProt Q52LA3 1-112), in experiment [1], the binding result is “binds”.

As for “LIN37, endogenous in HCT116 cells (from UniProt Q96GY3 1-246)”, the binding result is “no binding” in experiment [3]; “no binding” in experiment [4]; “binds” in experiment [5]; “binds” in experiment [6]; “no binding” in experiment [7].

With “RBAP48, endogenous in HCT116 cells (from UniProt Q09028 1-425)”, the binding result is listed as “no binding” in experiment [3], “binds” in experiment [5], “binds” in experiment [6] and “no binding” in experiment [7].

As to “LIN54, endogenous in HCT116 cells (from UniProt Q6MZP7 1-749)”, the binding result in experiment [3] is listed as “binds”; in experiment [5] it was “no binding”; in experiment [6], “binds”.

On to “p130, endogenous in HCT116 cells (from UniProt Q08999 1-1139)”, for which the binding entry was “binds” in experiment [3] and “no binding” in experiment [5].
